# In all, about 310,000 compounds went through this assay and about 17,000 (5.5%) were called active. Roughly 11% stayed inconclusive and do not appear here. The call rests on the fitted dose curve; in most records, active means well fitted inhibition curve with a large enough effect; inconclusive means small, poorly fitted or top-dose-only effect, or effect the other way; inactive means no such curve, though single readings can be large or run the other way. This is a selection; strong and weak results do not stand in their true shares. The source holds several records for some structures; these can differ, active in one and inactive in another.
# Target: Nuclear receptor ROR-gamma (Mus musculus) (UniProt P51450)
# UniProt P51450, sequence (P51450 whole entry, looked up): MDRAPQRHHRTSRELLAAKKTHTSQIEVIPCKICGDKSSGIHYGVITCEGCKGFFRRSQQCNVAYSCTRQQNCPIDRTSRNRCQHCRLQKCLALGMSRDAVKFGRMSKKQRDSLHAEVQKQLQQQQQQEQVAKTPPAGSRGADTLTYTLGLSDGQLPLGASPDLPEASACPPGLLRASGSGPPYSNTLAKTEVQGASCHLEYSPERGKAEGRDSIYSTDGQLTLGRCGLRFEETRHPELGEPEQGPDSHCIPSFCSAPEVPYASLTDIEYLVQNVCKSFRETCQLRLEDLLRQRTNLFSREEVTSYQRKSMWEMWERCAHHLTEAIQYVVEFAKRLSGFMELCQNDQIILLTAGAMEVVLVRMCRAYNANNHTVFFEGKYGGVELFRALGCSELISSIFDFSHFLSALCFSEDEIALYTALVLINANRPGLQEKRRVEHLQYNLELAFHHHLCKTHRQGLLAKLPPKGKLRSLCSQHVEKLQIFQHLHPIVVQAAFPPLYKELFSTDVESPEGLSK
# Experiment: qHTS for inhibitors of ROR gamma transcriptional activity; further: nearly all actives have a fitted effect of over 60% in size
# Details: Drosophila S2 Gal4-RORgamma UAS-luciferase reporter, 20 h; series mostly up to 53.6 µM; activity change, negative = inhibition: at the top concentration
# Summary of the method: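 ROR gamma transcriptional activity was tracked as Gal4-UAS luciferase output in stably transfected Drosophila Schneider cells, with compound added 1 hr before 700 uM copper sulfate induction and a 20 hr ambient-temperature incubation.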
# On the % scale 0 is the no-effect control and ±100 the full control effect; potency means the concentration at half of the fitted maximal effect.
SMILES,"activity change, negative = inhibition",Potency
COc1cc([C@@H]2c3cc4c(cc3[C@@H](O[C@@H]3O[C@H]5CO[C@@H](C)O[C@@H]5[C@@H](O)[C@H]3O)[C@@H]3COC(=O)[C@@H]23)OCO4)cc(OC)c1O,inactive: -30.7%,–
COc1ccc(Br)cc1[C@H]1[C@H]2C=CC[C@@H](C)[C@@H]2C(=O)N1Cc1ccccc1,inactive: 5.59%,–
Cc1nn(C)c(Cl)c1S(=O)(=O)N[C@@H](c1ccccc1)[C@]1(C)C[C@H]1[C@@H](C)C(=O)Nc1ccc2ccccc2c1,inactive: 35.6%,–
COC(=O)[C@H]1C[C@@H]1[C@H](NC(=O)c1ccccc1)c1ccccc1,inactive: -30.5%,–
COC(=O)[C@@]1(Cc2ccc(OC)cc2)[C@H]2c3cc(C(=O)N(C)C)[nH]c3C[C@H]2CN1C(=O)c1ccccc1,inactive: 10.7%,–
Cc1nc2sccn2c(=O)c1CCN1CCC(=C(c2ccc(F)cc2)c2ccc(F)cc2)CC1,–,inactive
CC(C)NC(=O)[C@@H]1C[C@@]1(C)[C@@H](NC(=O)OCc1ccccc1)c1ccccc1,inactive: 1.45%,–
CCOC(=O)[C@@H]1[C@H]2COc3ccc(Br)cc3[C@H]2N2C(=O)N(c3cccc(F)c3)C(=O)[C@]12C,inactive: -21.2%,–
Cc1ccc(SC[C@H](c2ccccc2)N2CCN(CCc3ccccc3)CCC2=O)cc1,inactive: 34.1%,–
Cc1cc(CNC(=O)[C@H]2C[C@@H]2[C@H](NP(=O)(c2ccccc2)c2ccccc2)c2ccccc2)nn1C,inactive: 12.6%,–
COc1ccc2c(c1)O[C@@H](c1ccc3c(c1)OCO3)[C@H](OC(=O)NCc1ccco1)C2=O,inactive: 35.5%,–
C/C(=N\NC(=S)NCc1ccccc1)c1ccccc1F,–,active: 1.26 µM
CCCCCn1c(=N)n(CC(O)COc2ccccc2OC)c2ccccc21 (configuration not stated),inactive: 0.342%,–
Nc1ccc(C(=O)O)c(O)c1,–,inactive
O=C1C2C(c3ccccc3)CC=CC2C(c2ccoc2)N1Cc1ccccc1 (configuration not stated),inactive: 3.35%,–
C[C@H]1CC[C@@]2(O[C@H](CCO)C[C@@H](O)[C@@H]2O)O1,inactive: -15.9%,–
O=C1C=C(c2ccccc2)OC(=O)C1C(=O)c1ccccc1 (configuration not stated),inactive: -8.94%,–
COc1ccc(C[C@H]2CN3C(=NC[C@H]3Cc3ccccc3)N2CCNC(=O)CCC2CCCCC2)cc1,inactive: -35.8%,–
COc1cc(/C=C2/SC(=O)NC2=O)ccc1Oc1ccc([N+](=O)[O-])cc1[N+](=O)[O-],inactive: -28%,–
COc1cccc(C2c3[nH]c4ccccc4c3CCN2Cc2cccc(C)n2)c1 (configuration not stated),–,active: 12.6 µM
Nc1nc(NCC2CCC(CNS(=O)(=O)c3cccc4ccccc34)CC2)nc2ccccc12 (configuration not stated),inactive: -32.9%,–
O=C(Nc1ccccc1)C1=C[C@H](c2ccc(Br)cc2)C[C@H](OCc2ccc(CO)cc2)O1,inactive: 32.4%,–
CC(=O)N[C@H](c1ccccc1)[C@@]1(C)C[C@@H]1[C@@H](C)C(=O)Nc1ccc2ccccc2c1,inactive: 31.6%,–

SMILES,"activity change, negative = inhibition",Potency
c1ccc(-c2nc3ccccc3s2)nc1,inactive: -1.46%,–
C[C@]1(C(=O)NCCc2c[nH]c3ccccc23)C=C[C@@H](Cc2ccccc2)N1C(=O)c1ccccc1,inactive: -37%,–
C#CCn1c(=NC(=O)c2ccc(Cl)s2)sc2cccc(OC)c21,–,active: 2.24 µM
Cc1cccc(N=C2NC(=O)/C(=C\c3cccs3)S2)c1,inactive: 19.5%,–
CCN1CCC[C@H]1CNC(=O)c1cc(S(N)(=O)=O)ccc1OC,–,inactive
CCCCCCCCCCCC(=O)O,inactive: 4.68%,–
CC[C@@H]1CC=C[C@H]2[C@H]1C(=O)N(Cc1ccccc1)[C@H]2c1cc(C)ccc1F,inactive: 36.7%,–
CCOC(=O)[C@@H]1[C@H]2COc3cc(OC)ccc3[C@H]2N2C(=O)N(c3ccc(C(F)(F)F)cc3)C(=O)[C@@]12C,inactive: -0.201%,–
C=C1CCN([C@@H](C)C(=O)OCc2ccc(C)cc2)S(=O)(=O)c2ccccc21,inactive: 8.3%,–
Clc1ccccc1C(c1ccccc1)(c1ccccc1)n1ccnc1,inactive: -35.6% [at 2.98 µM],–
CN(c1cccc2cccnc12)S(=O)(=O)c1ccccc1,inactive: -22%,–
Cc1ccc(C(NC(=O)C(C)C)c2cc([N+](=O)[O-])c3cccnc3c2O)cc1 (configuration not stated),–,active: 2.24 µM
CC[C@]1(O)C[C@@H]2CN(CCc3c([nH]c4ccccc34)[C@@](C(=O)OC)(c3cc4c(cc3OC)N(C)[C@H]3[C@@](O)(C(=O)OC)[C@H](OC(C)=O)[C@]5(CC)C=CCN6CC[C@]43[C@@H]65)C2)C1,inactive: 34.9%,–
CCOC(=O)c1cc(-c2cccs2)nc2c1c(C)nn2-c1ccccn1,–,active: 1.78 µM
O=C(NN1C(=O)/C(=C/c2ccc(O)c([N+](=O)[O-])c2)SC1=S)c1ccccc1Cl,inactive: 20.7%,–
COc1ccc(-n2c(=S)[nH]c3ccccc32)cc1,–,active: 4.47 µM
CC(=O)Nc1cccc(C2=CC(c3ccco3)n3ncnc3N2)c1 (configuration not stated),–,active: 6.31 µM
Cc1ccc(OCc2ccc(C(=O)Nc3nc4ccccc4n3C)o2)c([N+](=O)[O-])c1,–,active: 5.62 µM
C[C@@H](C(=O)O)[C@H]1C[C@]1(C)[C@H](NC(=O)OCc1ccccc1)c1ccccc1,inactive: 26.2%,–
C#CCNC(=O)C1=C[C@@H](C2CCCCC2)C[C@@H](OCc2ccc(CO)cc2)O1,inactive: 40.9%,–
COc1ccc2cc1Oc1ccc(cc1)C[C@H]1c3c(cc4c(c3Oc3cc5c(cc3OC)CCN(C)[C@@H]5C2)OCO4)CCN1C,inactive: -33.4%,–
COc1ccc(CC(=O)c2ccc(O)cc2O)cc1,inactive: -9.63%,–
COC(=O)[C@H](Cc1ccccc1)NC(=O)O[C@@H]1C(=O)c2cc(Br)ccc2O[C@H]1c1cccc(OC)c1,inactive: 25.3%,–

SMILES,"activity change, negative = inhibition",Potency
COc1ccc(CC(N)C(=O)NC2C(CO)OC(n3cnc4c(N(C)C)ncnc43)C2O)cc1 (configuration not stated),inactive: -4.31%,–
CCN(CC)CCC(c1ccc(N(C)C)cc1)c1c(OC)cc(OC)c2c(-c3ccccc3)cc(=O)oc12 (configuration not stated),inactive: 13.6%,–
O=C(NC1=NCCS1)c1cc(-c2cccs2)nc2ccccc12,–,active: 25.1 µM
O=C(c1ccc(OCCN2CCCCC2)cc1)c1c(-c2ccc(O)cc2)sc2cc(O)ccc12,–,inactive
COC(=O)[C@@]1(Cc2ccc(OC)cc2)[C@H]2c3cc(C(=O)N(C)C)n(Cc4ccc(OC(F)(F)F)cc4)c3C[C@H]2CN1C(=O)c1ccccc1,inactive: 41%,–
O=C(CC12CC3CC(CC(C3)C1)C2)NC(=S)NCc1ccccc1,–,active: 2 µM
CCOC(=O)[C@@H]1[C@H]2COc3cc(OC)ccc3[C@H]2N2C(=O)N(c3ccc(C)cc3)C(=O)[C@@]12C,inactive: -23.7%,–
O=C(C1=C[C@H](C2CC2)C[C@H](OCc2ccc(CO)cc2)O1)N1CCOCC1,inactive: -12.4%,–
COc1ccc(C(=O)NNC(=O)c2ccccn2)cc1,–,active: 7.08 µM
COc1ccccc1OCCNCC(O)COc1cccc2[nH]c3ccccc3c12 (configuration not stated),–,active: 1 µM
CCCCCCNC(=O)N1C/C=C\C(c2ccc(OC)cc2)N(Cc2ccc(F)cc2)C(=O)C1 (configuration not stated),inactive: -10.4%,–
COC(=O)[C@@]1(Cc2ccc(OC)cc2)[C@H]2c3cc(C(=O)N4CCCC4)n(CCc4c[nH]c5ccc(O)cc45)c3C[C@H]2CN1C(=O)c1ccccc1,inactive: 2.37%,–
Clc1ccccc1CN1CCN(/N=C/C=C\c2ccco2)CC1,inactive: 15.2%,–
O=C(NC1CC1)C1=C[C@H](c2ccc3c(c2)OCO3)C[C@H](OCc2ccc(CO)cc2)O1,inactive: 21.6%,–
Cc1ccccc1NC(=S)Nc1cccc2cnccc12,–,active: 10 µM
COc1ccc(C2c3ccc4ccccc4c3Oc3ncn(CCCO)c(=N)c32)cc1 (configuration not stated),–,active: 3.98 µM
CCC1=C(OC(=O)N(CC)CC)N2C(=O)OC(=NCCc3c[nH]c4ccccc34)[C@]2(C)[C@H]2C1=CC[C@H]1C(=O)N(CC(=O)OC)C(=O)[C@H]12,inactive: 18.3%,–
NC(=S)NN=C1c2cc(OCCN3CCOCC3)ccc2-c2ccc(OCCN3CCOCC3)cc21,–,active: 1.26 µM
COc1ccc(C2c3ccc4ccccc4c3Oc3ncn(CCN(C)C)c(=N)c32)cc1 (configuration not stated),–,active: 31.6 µM
COc1ccc(O[C@H]2C=C[C@@H](c3ccccc3)O[C@@H]2CO/N=C(\C)CCN2CCCCc3nc(C)c(C)cc32)cc1,inactive: -3.8% [at 10 µM],–
O=Cc1ccc(-c2nc3ccccc3s2)o1,–,active: 4.47 µM
